Reference: PMC11271582, “Pan-serotype dengue virus inhibitor JNJ-A07 targets NS4A-2K-NS4B interaction with NS2B/NS3 and blocks replication organelle formation” (Nature Communications, 2024)
Read-outs that look alike come from different tables or passages of the source.

What was measured:
[1] = system: sgDVs-R2A replicons with NS4B resistance mutations (DENV 2/16681); details: fold change in EC50 versus WT
[2] = system: sgDVs-R2A replicons with NS4B resistance mutations (DENV 2/16681); set-up: method as in PMID 34671169; details: fold change in EC50 versus WT; cited from earlier work

Structure (SMILES) | resistance conferred by NS4B mutations L94F, V91A, T216N [1] | resistance conferred by NS4B mutations S85L, T108I and A137T [1] | resistance conferred by NS4B mutations L94F, V91A, T216N [2]
C#CCCC1(CCn2cc(C(=O)C(Nc3cc(OC)cc(OCCOC)c3)c3ccc(Cl)cc3OC)c3cc(OC(F)(F)F)ccc32)N=N1 (stereo not drawn) [Compound A] | strong | weak | –
COc1cc(NC(C(=O)N2CCc3ccc(OC(F)(F)F)cc32)c2ccc(Cl)cc2)cc(OCCCC(=O)O)c1 (stereo not drawn) [JNJ-A07] | – | – | strong
